# Data reported in the supplement of paper PMC12217912.
# Some of the results follow. Sequences were assembled here from the parent chain. Values near 0.05 are background.
# B1: TEV protease; numbered along this chain (parent)
# chain: MGESLFKGPRDYNPISSSICHLTNESDGHTTSLYGIGFGPFIITNKHLFRRNNGTLVVQSLHGVFKVKDTTTLQQHLVDGRDMIIIRMPKDFPPFPQKLKFREPQREERICLVTTNFQTKSMSSMVSDTSCTFPSGDGIFWKHWIQTKDGQCGSPLVSTRDGFIVGIHSASNFTNTNNYFTSVPKNFMELLTNQEAQQWVSGWRLNADSVLWGGHKVFMVKPEEPFQPVKEATQL
# Variants of: B1
# Test: raw area under fraction-flipped curve 0-4 h after induction (AUC4h, not background-subtracted), DNA-recorder readout of cleavage of the substrate (dimensionless); higher = more cleavage of the substrate by the protease variant
# Details: temperature: 34 °C; time window: 0-4 h after rhamnose induction
# Experimental: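 In vivo DNA recorder in E. coli TOP10(DE3) ΔrhaA at 34 °C. Each TEVp single-site mutant (parent TEVp 0) is paired with a single-site variant of the 7-mer TEVs (canonical ENLYFQ|S). The substrate sits between flexible linkers in a Bxb1-sfGFP-TEVs-SsrA fusion, so cleavage stabilises Bxb1 and speeds flipping of a recombination array, read by NGS. The value is the raw area under the fraction-flipped curve over 0-4 h after rhamnose induction (AUC4h), with ≥20 reads per time point. It is not background-subtracted; inactive controls average about 0.047.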
# 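Further: Bxb1 expression induced with 0.2% (w/v) L-rhamnose at OD600 near 0.5, cultures sampled hourly, flipped fraction per protease–substrate barcode pair counted by paired-end Illumina sequencing.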
variant,measurement,value
MGESLFKGPRDYNPISSSICHLTNESDGHTTSLYGIGFGPFIKTNKHLFRRNNGTLVVQSLHGVFKVKDTTTLQQHLVDGRDMIIIRMPKDFPPFPQKLKFREPQREERICLVTTNFQTKSMSSMVSDTSCTFPSGDGIFWKHWIQTKDGQCGSPLVSTRDGFIVGIHSASNFTNTNNYFTSVPKNFMELLTNQEAQQWVSGWRLNADSVLWGGHKVFMVKPEEPFQPVKEATQL [I43K],area with substrate ENLYDQS,0.0642
same,area with substrate ENLYEQS,0.0454
same,area with substrate ENLYGQS,0.0491
same,area with substrate ENLYHQS,0.0426
same,area with substrate ENLYKQS,0.033
same,area with substrate ENLYMQS,0.052
same,area with substrate ENLYNQS,0.0479
same,area with substrate ENLYPQS,0.0423
same,area with substrate ENLYQQS,0.0791
same,area with substrate ENLYRQS,0.0561
same,area with substrate ENLYTQS,0.0542
same,area with substrate ENLYVQS,0.0424
same,area with substrate ENLYYQS,0.0417
MGESLFKGPRDYNPISSSICHLTNESPGHTTSLYGIGFGPFIITNKHLFRRNNGTLVVQSLHGVFKVKDTTTLQQHLVDGRDMIIIRMPKDFPPFPQKLKFREPQREERICLVTTNFQTKSMSSMVSDTSCTFPSGDGIFWKHWIQTKDGQCGSPLVSTRDGFIVGIHSASNFTNTNNYFTSVPKNFMELLTNQEAQQWVSGWRLNADSVLWGGHKVFMVKPEEPFQPVKEATQL [D27P],area with substrate ENLYDQS,0.0587
same,area with substrate ENLYEQS,0.0426
same,area with substrate ENLYHQS,0.0599
same,area with substrate ENLYIQS,0.0961
same,area with substrate ENLYKQS,0.0656
same,area with substrate ENLYPQS,0.0259
same,area with substrate ENLYQQS,0.0558
same,area with substrate ENLYRQS,0.0512
same,area with substrate ENLYSQS,0.0706
same,area with substrate ENLYTQS,0.0618
same,area with substrate ENLYVQS,0.118
same,area with substrate ENLYWQS,0.0843
MGESLFKGPRDYNPISSSICHLTNESDGHTTLLYGIGFGPFIITNKHLFRRNNGTLVVQSLHGVFKVKDTTTLQQHLVDGRDMIIIRMPKDFPPFPQKLKFREPQREERICLVTTNFQTKSMSSMVSDTSCTFPSGDGIFWKHWIQTKDGQCGSPLVSTRDGFIVGIHSASNFTNTNNYFTSVPKNFMELLTNQEAQQWVSGWRLNADSVLWGGHKVFMVKPEEPFQPVKEATQL [S32L],area with substrate ENLYDQS,0.0464
same,area with substrate ENLYEQS,0.0594
same,area with substrate ENLYHQS,0.0704
same,area with substrate ENLYIQS,0.118
same,area with substrate ENLYMQS,0.0865
same,area with substrate ENLYNQS,0.0764
same,area with substrate ENLYPQS,0.0651
same,area with substrate ENLYQQS,0.0648
same,area with substrate ENLYRQS,0.0387
same,area with substrate ENLYTQS,0.0695
same,area with substrate ENLYWQS,0.0852
MGESLFKGPRDYNPISSSICHLTNESDGHTTWLYGIGFGPFIITNKHLFRRNNGTLVVQSLHGVFKVKDTTTLQQHLVDGRDMIIIRMPKDFPPFPQKLKFREPQREERICLVTTNFQTKSMSSMVSDTSCTFPSGDGIFWKHWIQTKDGQCGSPLVSTRDGFIVGIHSASNFTNTNNYFTSVPKNFMELLTNQEAQQWVSGWRLNADSVLWGGHKVFMVKPEEPFQPVKEATQL [S32W],area with substrate ENLYDQS,0.0739
same,area with substrate ENLYEQS,0.0657
same,area with substrate ENLYGQS,0.0723
same,area with substrate ENLYHQS,0.0623
same,area with substrate ENLYIQS,0.14
same,area with substrate ENLYKQS,0.0711
same,area with substrate ENLYLQS,0.1
same,area with substrate ENLYMQS,0.0957
same,area with substrate ENLYNQS,0.0679
same,area with substrate ENLYPQS,0.0748
same,area with substrate ENLYQQS,0.0579
same,area with substrate ENLYRQS,0.0359
same,area with substrate ENLYSQS,0.0659
same,area with substrate ENLYVQS,0.127
same,area with substrate ENLYWQS,0.101
same,area with substrate ENLYYQS,0.0747
MGESLFKGPRDYNPISSSICHLTNESDGHTTSLYGIGFGPFIITNKHLFRRNNGTLVVQSLHGVFKVKDTTCLQQHLVDGRDMIIIRMPKDFPPFPQKLKFREPQREERICLVTTNFQTKSMSSMVSDTSCTFPSGDGIFWKHWIQTKDGQCGSPLVSTRDGFIVGIHSASNFTNTNNYFTSVPKNFMELLTNQEAQQWVSGWRLNADSVLWGGHKVFMVKPEEPFQPVKEATQL [T72C],area with substrate ENLYDQS,0.0432
same,area with substrate ENLYLQS,0.0851
same,area with substrate ENLYMQS,0.0814
same,area with substrate ENLYNQS,0.0874
same,area with substrate ENLYPQS,0.0695
same,area with substrate ENLYQQS,0.0448
same,area with substrate ENLYSQS,0.0702
same,area with substrate ENLYVQS,0.105
same,area with substrate ENLYWQS,0.0991
MGESLFKGPRDYNPISSSICHLTNESDGHTTSLYGIGFGPFIITNKHLFRRNNGTLVVQSLHGVFKVKDTTNLQQHLVDGRDMIIIRMPKDFPPFPQKLKFREPQREERICLVTTNFQTKSMSSMVSDTSCTFPSGDGIFWKHWIQTKDGQCGSPLVSTRDGFIVGIHSASNFTNTNNYFTSVPKNFMELLTNQEAQQWVSGWRLNADSVLWGGHKVFMVKPEEPFQPVKEATQL [T72N],area with substrate ENLYDQS,0.0875
same,area with substrate ENLYEQS,0.0774
same,area with substrate ENLYGQS,0.0618
same,area with substrate ENLYHQS,0.0622
same,area with substrate ENLYIQS,0.143
same,area with substrate ENLYKQS,0.0398
same,area with substrate ENLYMQS,0.0808
same,area with substrate ENLYPQS,0.0532
same,area with substrate ENLYQQS,0.0596
same,area with substrate ENLYRQS,0.0465
same,area with substrate ENLYSQS,0.0534
same,area with substrate ENLYTQS,0.0812
same,area with substrate ENLYVQS,0.127
same,area with substrate ENLYWQS,0.0663
same,area with substrate ENLYYQS,0.0669
MGESLFKGPRDYNPISSSICHLTWESDGHTTSLYGIGFGPFIITNKHLFRRNNGTLVVQSLHGVFKVKDTTTLQQHLVDGRDMIIIRMPKDFPPFPQKLKFREPQREERICLVTTNFQTKSMSSMVSDTSCTFPSGDGIFWKHWIQTKDGQCGSPLVSTRDGFIVGIHSASNFTNTNNYFTSVPKNFMELLTNQEAQQWVSGWRLNADSVLWGGHKVFMVKPEEPFQPVKEATQL [N24W],area with substrate ENLYDQS,0.0626
same,area with substrate ENLYEQS,0.0607
same,area with substrate ENLYGQS,0.0622
same,area with substrate ENLYHQS,0.0601
same,area with substrate ENLYIQS,0.12
same,area with substrate ENLYKQS,0.0651
same,area with substrate ENLYMQS,0.0646
same,area with substrate ENLYNQS,0.0835
same,area with substrate ENLYPQS,0.0636
same,area with substrate ENLYQQS,0.0613
same,area with substrate ENLYRQS,0.0664
same,area with substrate ENLYSQS,0.0592
same,area with substrate ENLYVQS,0.0697
same,area with substrate ENLYWQS,0.0708
same,area with substrate ENLYYQS,0.0617
MGESLFKGPRDYNPISSSICHLTYESDGHTTSLYGIGFGPFIITNKHLFRRNNGTLVVQSLHGVFKVKDTTTLQQHLVDGRDMIIIRMPKDFPPFPQKLKFREPQREERICLVTTNFQTKSMSSMVSDTSCTFPSGDGIFWKHWIQTKDGQCGSPLVSTRDGFIVGIHSASNFTNTNNYFTSVPKNFMELLTNQEAQQWVSGWRLNADSVLWGGHKVFMVKPEEPFQPVKEATQL [N24Y],area with substrate ENLYDQS,0.0559
same,area with substrate ENLYEQS,0.0489
same,area with substrate ENLYGQS,0.0786
same,area with substrate ENLYHQS,0.071
same,area with substrate ENLYKQS,0.0578
same,area with substrate ENLYMQS,0.0692
same,area with substrate ENLYNQS,0.0659
same,area with substrate ENLYPQS,0.0791
same,area with substrate ENLYQQS,0.0594
same,area with substrate ENLYRQS,0.0517
same,area with substrate ENLYTQS,0.0629
same,area with substrate ENLYWQS,0.071
same,area with substrate ENLYYQS,0.0626
MGESLFKGPRDYNPISSSICHLTTESDGHTTSLYGIGFGPFIITNKHLFRRNNGTLVVQSLHGVFKVKDTTTLQQHLVDGRDMIIIRMPKDFPPFPQKLKFREPQREERICLVTTNFQTKSMSSMVSDTSCTFPSGDGIFWKHWIQTKDGQCGSPLVSTRDGFIVGIHSASNFTNTNNYFTSVPKNFMELLTNQEAQQWVSGWRLNADSVLWGGHKVFMVKPEEPFQPVKEATQL [N24T],area with substrate ENLYDQS,0.0623
same,area with substrate ENLYEQS,0.0499
same,area with substrate ENLYGQS,0.0649
same,area with substrate ENLYHQS,0.0583
same,area with substrate ENLYIQS,0.107
same,area with substrate ENLYKQS,0.0172
same,area with substrate ENLYLQS,0.0718
same,area with substrate ENLYMQS,0.065
same,area with substrate ENLYNQS,0.063
same,area with substrate ENLYRQS,0.0686
same,area with substrate ENLYSQS,0.0193
same,area with substrate ENLYTQS,0.0636
same,area with substrate ENLYVQS,0.0989
same,area with substrate ENLYWQS,0.0512
